Source: publication PMC12136788
The other results are listed elsewhere or left out.

T1: UNK ZnF1-3 (human, UniProt Q9C0B0 31-174)
T1 sequence: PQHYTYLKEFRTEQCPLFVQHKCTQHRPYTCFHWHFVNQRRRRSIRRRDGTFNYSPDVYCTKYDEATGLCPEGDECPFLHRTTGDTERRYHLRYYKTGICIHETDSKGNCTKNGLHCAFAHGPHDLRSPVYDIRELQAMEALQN

B1: chr19:41288841:41288842:-_ENSMUSG00000025016_ENSMUST00000025989|mus_mus|motif|central (ssRNA)
RNA: GGGAGUUCUACAGUCCGACGAUCUAAAUCUCCAAAUGUUUAAUAAAAACAAGCAUCUUCUCCAUUUAACACUUCGCUUGCGGACUGUACAGUAGAUUGUAUUAUAGAGAGUGCACCUCUACUUUCAUACUGUAUCUUCUUUGGCAACAGAGGAUUGAGCAUCA
B2: chr4:115894766:115894767:+_ENSMUSG00000028698_ENSMUST00000030464|mus_hu|mus_mus_mus_hu_True|38_48 (ssRNA)
RNA: GGGAGUUCUACAGUCCGACGAUCUUCCACACGGAAAUGUACUUCGGGUUUUCCAACGGCCAGUACCAGUCCGGCCAAACUACCCGAUGAGGACAAGGUCCUCCUCUCCUACAGAACACAACAAAAUGCCCCCGAACUUUCAAGCAACAGAGGAUUGAGCAUCA
B3: 124787849_124787969_1977_3pUTR_ENSMUSG00000028863_ENSMUST00000154689|mouse|control|control (ssRNA)
RNA: GGGAGUUCUACAGUCCGACGAUCCAUCCAAGAAAAUGGGAGUCUGUUUAAGAACAAAAUGAAAGGCUUUUGCACAUCUGACAGGGUGGUUCUGGUGAAGAGGCCAGCCAUCUCCGCCAACAGCAUGGACCACAACGGCCCAAGCAACAGAGGAUUGAGCAUCA
B4: chr1:35579700:35579701:+_ENSG00000197056_ENST00000373330|hu_hu|motif|central (ssRNA)
RNA: GGGAGUUCUACAGUCCGACGAUCGAACAAAGAACUGAGAGUUUUUAGAGCACUUCGGAGUUCUUUUACUUCUUUACAAAACCGGAUUAUUGAUAAAUCCAAAAAGUGUGCAUAACAAUGUAUGUAUAAAGCUCUUGGUUCUUCCAACAGAGGAUUGAGCAUCA
B5: chr3:35977374:35977375:+_ENSMUSG00000027710_ENSMUST00000011492|mus_mus|motif|central (ssRNA)
RNA: GGGAGUUCUACAGUCCGACGAUCCACAGGCACUCUGGUAUUUUCAAAAUGGACCUCACAUGUGUUGGAGCCUCGAAUGCCGGAUUUAUCUUCAGGUUUCCCAUUAGUGAUUCCGCCGAAGUCUCUUUCUACUAUGAAUGCGGUCAACAGAGGAUUGAGCAUCA
B6: chr2:114714976:114714977:+_ENSG00000115091_ENST00000536059|hu_hu|motif|central (ssRNA)
RNA: GGGAGUUCUACAGUCCGACGAUCAUAACUAUGAAGCCAAUUUUACGACAUGACUCCAAACACUGGAUUGUGACGACAAAUGCGGGGUCCAAUUUCUUCAUAAUCCUUUUUGGUGUGGCAUACUUGGUAGAACUCAGGCGUGGACAACAGAGGAUUGAGCAUCA
B7: chr17:65930154:65930155:-_ENSMUSG00000024091_ENSMUST00000024897|mus_mus|motif|central (ssRNA)
RNA: GGGAGUUCUACAGUCCGACGAUCGGUGACAUUAUCUCUGAAGGACACGGCUGAGGUGGAUCCAGGUUUAUCCGAAUGUGCGGCCUUUCUGAGCCUUAGGCCUUCAUCUCUCAGGUGUCGGUUUUCUUCUGAGAGCUUCAUCAUCAACAGAGGAUUGAGCAUCA
B8: chr12:72179577:72179578:+_ENSG00000080371_ENST00000261263|hu_hu|motif|central (ssRNA)
RNA: GGGAGUUCUACAGUCCGACGAUCGUUUAGCACUUAAGGUCUCUGCAGUGUUAUAAACGUAAUUUAAAAUACUGUUAAUUCGGUAAUUCCAUUGGUAAAAUAAUGUGACUUGGAAUAUGGCAGUCUUCAUGUUGAGGGCAAUGACAACAGAGGAUUGAGCAUCA
B9: 15614301_15614421_1454_CDS_ENSG00000151779_ENST00000281513|human|control|control (ssRNA)
RNA: GGGAGUUCUACAGUCCGACGAUCCACCAAGUAAAGGCCCUGUUUUAUAUAACCAAAGUAGCGAGCCUUGGCAGAUAUUUCAUAAUCAGAAUCAGAAUCCUCUUCUCCUUCAUCUUCUUCUCCAGCUCUAGUCUCCAAACGAGACAACAGAGGAUUGAGCAUCA
B10: 11073862_11073982_252_CDS_ENSG00000120948_ENST00000240185|human|control|control (ssRNA)
RNA: GGGAGUUCUACAGUCCGACGAUCAGCAUCUGGGGCAUGCAGAAUUCCUUCUACCAGCCGGACACCUCUCAUACACUGAGACACUGGAUUCCUGUAGCGAAGCCCACACGCCCCUGGAAACUGGGCUGUAACCGUGGAGAGCAGCAACAGAGGAUUGAGCAUCA
B11: chrX:20248820:20248821:+_ENSMUSG00000001924_ENSMUST00000001989|mus_mus|mus_mus_mus_hu_True|48_68 (ssRNA)
RNA: GGGAGUUCUACAGUCCGACGAUCGGCGAAGUCCGUCACCACAAAGUCAGGUUCUGCCAGUGAGGCCGGCAAGGAUUUAAAGCUAAUCUUUUUCGGUACUUUGACCUGACUGACGAUGCCUCCACGGAUGUAGUCGGAGAAGUUCAACAGAGGAUUGAGCAUCA
B12: 105546219_105551056_2895_CDS_ENSG00000136051_ENST00000332180|human|control|control (ssRNA)
RNA: GGGAGUUCUACAGUCCGACGAUCUAGUUCUUCAAAAUUUACAAUAUCUUCAAGAUCAGGAACAAAUCUAAUGGCAUUGCUGCUACAAUGAAGACCACCAGAUCUUAUCAUUCGUACAUAGCCCAUAGCAUUACCAAUCUGGCUCAACAGAGGAUUGAGCAUCA
B13: 108138349_108140082_1765_CDS_ENSG00000110851_ENST00000228437|human|control|control (ssRNA)
RNA: GGGAGUUCUACAGUCCGACGAUCCCAUUCUGCUACUUCCAUGGAGUGACUCUGCUGGCCAAUUAGAGGUCCAAAGCAAGUCCGCACAGGAAUGGUUUCUCCAGUCCAUACACCAACUUCUGCUCCCACAAUUGACUGACGGAGCAACAGAGGAUUGAGCAUCA
B14: chr8:104447970:104447971:+_ENSG00000164934_ENST00000297579|hu_hu|hu_hu_hu_mus_False|98_98 (ssRNA)
RNA: GGGAGUUCUACAGUCCGACGAUCAUACACUUCCCUGCUUCGACUUUUGUCCACAGGAAAGAUUCUAAUAGACUUAUCAAAGCUGGCAGACACAAAUUCCUUCCCAGUGGGAGAGUAGUCCACAUCAAGUACUGCAGACACGUGCAACAGAGGAUUGAGCAUCA
B15: chr3:179287964:179287965:+_ENSG00000136518_ENST00000429709|hu_hu|hu_hu_hu_mus_True|28_108 (ssRNA)
RNA: GGGAGUUCUACAGUCCGACGAUCCUUUAGAGGUGAAAUGGCCUCCAUGUUCUCCCUGGGCACGCGGAGGGCAUUGGUGUCUAUGUAGUAGGUGGGCCCGCCCUGCUUGCCUUUAUCACCAUCAAUCUCCAUCAUUGUACUUCCCAACAGAGGAUUGAGCAUCA
B16: chr9:108650075:108650076:+_ENSMUSG00000032601_ENSMUST00000035220|mus_mus|motif|central (ssRNA)
RNA: GGGAGUUCUACAGUCCGACGAUCAGCAAUUUGUUUAUGUAAACAGCACAGAGGUUAAACAAAACAAAACAAAACAAAAACCGGCGGAAUACAAACAACAAAAACCCUAACCCAGAUAACCUUUCCUGGCUACUACUGGAAAGACAACAGAGGAUUGAGCAUCA
B17: 19555051_19555939_504_CDS_ENSG00000072210_ENST00000579855|human|control|control (ssRNA)
RNA: GGGAGUUCUACAGUCCGACGAUCUAAAUACUGAGGGAGAAGCUUUGCCAAGAUCUUGGCUGUAUUUUCACUCAGUUCAGAAGGCUUUAUAAUCACAGCAUUUCCUGCAGCGAUGGCUCCUAUCAGUGGCUGAAUGGUGAGAACCAACAGAGGAUUGAGCAUCA
B18: 160781851_160782804_7212_CDS_ENSMUSG00000057133_ENSMUST00000039782|mouse|control|control (ssRNA)
RNA: GGGAGUUCUACAGUCCGACGAUCCCUCUCUUCUCCACCUAGAGAGCUGAUGUCUAAUUUUCCAGGUUCUUUGCAGCGUGGUCUCCUCUGCUUGGGUUUGUCUGAAAAACUUGUCCCAAAGCCAGGAACAUCCAAAGAGUAGUCCAACAGAGGAUUGAGCAUCA
B19: chr18:52893488:52893489:-_ENSG00000196628_ENST00000354452|hu_hu|hu_hu_hu_mus_True|18_48 (ssRNA)
RNA: GGGAGUUCUACAGUCCGACGAUCUAUUUAGACCAUUUCCGCGGAGUUAUGGCAUUUACUCAGUGCUGAUAGGUGGAAAAACUACUUGAACAGGGAUUUUUUUUUUCCUUAAUACAUGCCAAGAAUUUGUGGCUGUCAAAACAGCAACAGAGGAUUGAGCAUCA
B20: chr2:15737528:15737529:+_ENSG00000079785_ENST00000233084|hu_mus|motif|central (ssRNA)
RNA: GGGAGUUCUACAGUCCGACGAUCUUUAAUAGUUGUUUUCCCUUUCUUUCCUUCCUGUUGGUCUUUCAGAGUUUCAUACACGGUCUGGAUAACGGGAAUACUAAAUGCACCAGUUUUUCCACUUCCUGUUUCUGCAGCCAUGAGCAACAGAGGAUUGAGCAUCA
B21: chr14:78183846:78183847:+_ENSG00000119705_ENST00000557342|hu_hu|hu_hu_hu_mus_False|28_28 (ssRNA)
RNA: GGGAGUUCUACAGUCCGACGAUCUCUCAGAAAUCUUUCUUCAUCAGAUGUUUGAGCUCCGUGCAAAGCCUUUGCUCUUUGAGCUUGAACGUGGAUCUAUGGGAGGGCUAUAAUAUGCAGAAAAGGUAAUUUUUUUUUUAAAGACAACAGAGGAUUGAGCAUCA
B22: chr12:70442348:70442349:-_ENSMUSG00000020982_ENSMUST00000021368|mus_mus|motif|central (ssRNA)
RNA: GGGAGUUCUACAGUCCGACGAUCAACCGGGUCUCCUUGAGCUUGAGCUUCUUUCACAAUCACUCCGAUUUCUGUCCAGUCGGUCUGGUUGGCCAACGCACUUCGGACUACCUGAAUGGCUCUGUCCACUAUCUGCAGGUUCAUCAACAGAGGAUUGAGCAUCA

These binders were tested against T1, UNK ZnF1-3 (assay: nsRBNS (natural sequence RNA bind-n-seq); RBNS binding buffer (assumed for nsRBNS): 25 mM Tris pH 7.5, 150 mM KCl, 3 mM MgCl2, 0.01% Triton X-100, 500 ug/ml BSA, 20 U/ml SUPERase-In, 4 C; UNK is unkempt and MSI1 is Musashi-1; names of the RNAs are library labels; protein concentration not given here; high values mean tight binding).

| Binder | binding signal |
| --- | --- |
| B1 | 0.915 enrichment R |
| B2 | 0.79 enrichment R |
| B3 | 1.34 enrichment R |
| B4 | 1.03 enrichment R |
| B5 | 0.775 enrichment R |
| B6 | 1.1 enrichment R |
| B7 | 0.605 enrichment R |
| B8 | 1.43 enrichment R |
| B9 | 1.04 enrichment R |
| B10 | 1.2 enrichment R |
| B11 | 0.714 enrichment R |
| B12 | 1.27 enrichment R |
| B13 | 1.15 enrichment R |
| B14 | 0.994 enrichment R |
| B15 | 0.788 enrichment R |
| B16 | 3.18 enrichment R |
| B17 | 0.9 enrichment R |
| B18 | 0.941 enrichment R |
| B19 | 0.814 enrichment R |
| B20 | 0.606 enrichment R |
| B21 | 1.54 enrichment R |
| B22 | 0.817 enrichment R |
